Reference: paper PMC12136788
Substitutions are numbered along the chain they refer to. Some of the results follow.

T1: UNK ZnF1-3 (human, UniProt Q9C0B0 31-174)
T1 sequence: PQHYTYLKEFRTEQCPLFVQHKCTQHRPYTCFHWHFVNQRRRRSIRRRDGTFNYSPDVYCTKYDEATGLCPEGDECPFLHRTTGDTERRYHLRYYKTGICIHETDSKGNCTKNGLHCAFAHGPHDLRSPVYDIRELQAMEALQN

B1: 6456280_6456486_1514_CDS_ENSG00000164535_ENST00000297056|human|control|control (ssRNA)
RNA: GGGAGUUCUACAGUCCGACGAUCGAAGGCGUAGCACCUGACCUGCGGGUAGGCGGCUCUGAGCAUGGUGGCCAGCAGGGCGGCCGCCCCGCCCCCGAGGCUGUGGCCCACUAUGACCAGCCGGUACUCAGGAGCAAUGCUGAACAACAGAGGAUUGAGCAUCA
B2: chr5:6374476:6374477:-_ENSG00000133398_ENST00000255764|hu_hu|FALSE|FALSE (ssRNA)
RNA: GGGAGUUCUACAGUCCGACGAUCCAGGCUUUUAAAUUUCUUCAUGGUGUCGAUCUUGCCUUUAACUUGCUCAUUUUUAGCUAGAGCCCUCUCCAGGCACUCUUUGGUGUAGAGCUGGGGAUUUCGACCUUGAUCUAUAUAUUCCAACAGAGGAUUGAGCAUCA
B3: chr14:76904501:76904502:+_ENSMUSG00000022010_ENSMUST00000022587|mus_hu|FALSE|FALSE (ssRNA)
RNA: GGGAGUUCUACAGUCCGACGAUCUCCUAGAUCCAUCGCCACUGGUCUACACCAUUGGGAUUUCAUGCAAUUGCAGCCAAAAACACCCUCGUGGAAAAAAAGAGGGAACACCAGCAGCCUUGUAUAAGCUAGAUAAAAUCUUCUCAACAGAGGAUUGAGCAUCA
B4: chr1:66480114:66480115:+_ENSMUSG00000015222_ENSMUST00000024639|mus_hu|mus_mus_mus_hu_True|58_98 (ssRNA)
RNA: GGGAGUUCUACAGUCCGACGAUCUGGCCUGUGGCGGAUGUUCUUUAGAGAGCCACAUUUGGAUGUCACAUGGCUUAAGUCUAUCUUCUUGGUAACAAUUUGUACCUGCCCCCCUUUAGGCUGGUAUUUGAUGUUGUCUGUUGACAACAGAGGAUUGAGCAUCA
B5: chr2:127629987:127629988:-_ENSMUSG00000027379_ENSMUST00000028858|mus_mus|motif|central (ssRNA)
RNA: GGGAGUUCUACAGUCCGACGAUCACCAGAUGUUUCACAUUUUCCUGUAAAUACAGUUCCUUUAGGGAAAAGUUUCAUAUCGGUACUCUGACCCAGGUCAAUCAAUGCCAAGCCGGUAGCUAAGUCUUCAUCAGCCUGUUCCAACAACAGAGGAUUGAGCAUCA
B6: chr10:61005495:61005496:+_ENSG00000165443_ENST00000486074|hu_hu|FALSE|FALSE (ssRNA)
RNA: GGGAGUUCUACAGUCCGACGAUCAACUUAGGGUAUUUCAUCAUUGAAAGUAGUGGGAGGGGUAGGGAAUAGGAAAACACUAAAAUGGUUCUGAAUGAAAUUUGGAAAGUGGUAGUUGUUUGUUUUGGUGACAGUGGCAUGUGCCAACAGAGGAUUGAGCAUCA
B7: chr3:139075817:139075818:+_ENSG00000175110_ENST00000310776|hu_mus|FALSE|FALSE (ssRNA)
RNA: GGGAGUUCUACAGUCCGACGAUCUCAGGAUGCUGCGGAAUGACUGGUAACUAUUUCUUGAUAAGUUUGAAGUGCUAAUUCUAUAUAUGCUCCUCUCUGUGCUUCUGUUUUUGCGAAGACCUUAAUUAAGUCGACUCCCUCAGCCAACAGAGGAUUGAGCAUCA
B8: 57293318_57293438_1124_CDS_ENSMUSG00000079184_ENSMUST00000116468|mouse|control|control (ssRNA)
RNA: GGGAGUUCUACAGUCCGACGAUCUUUGGGUAUUGCUCUCCUUUCUAAAAAGGCAUUCGUGCUUUCAAGCUUCUUGAUCUCUUUUGGUUCCUCAAACUUUCUUGGCUUCGUCUUCUUCCUUCUAACUCGGGUACCAGCAUCCUCCAACAGAGGAUUGAGCAUCA
B9: chr4:107939148:107939149:-_ENSMUSG00000034636_ENSMUST00000043616|mus_mus|motif|central (ssRNA)
RNA: GGGAGUUCUACAGUCCGACGAUCCAUCUGGUUACCUCUGAAAAUUCCCACAGUUCCAUCAUUCAGGAGACCGUGGAAUGCGGUAGUCUGAAGAAGCCGGUCAGCCACCUCCUGUGGGAACACCCCAGGCUCCUGCAGACACAGCAACAGAGGAUUGAGCAUCA
B10: chr5:31261203:31261204:-_ENSMUSG00000045302_ENSMUST00000088063|mus_mus|FALSE|FALSE (ssRNA)
RNA: GGGAGUUCUACAGUCCGACGAUCGAAGCACACAACUUUCUGCAGCGGUUCAUUGCUGAAGUCUGUCUGUACUGCCUCCAAAUUCUUUACUUUGAGUUCAACCCCUUCGGGGUGAACUUGUGCUCCCGAUUUCUUCUCUGCUGGCAACAGAGGAUUGAGCAUCA
B11: chr10:61005217:61005218:+_ENSG00000165443_ENST00000486074|perfect_dup|motif|central (ssRNA)
RNA: GGGAGUUCUACAGUCCGACGAUCGUGAUUUCUGCCACGGUGCCCACAGAAAGAUCCACAGGGUCAGUGUAAAUGACUUCGGAAAUGACAUCCUGGGCAUGGUGGUAAACCAGCACCCCAUCUUCUUCUGUACAGGUCAAAAAUCAACAGAGGAUUGAGCAUCA
B12: chr16:17900988:17900989:-_ENSMUSG00000003527_ENSMUST00000003621|mus_mus|motif|central (ssRNA)
RNA: GGGAGUUCUACAGUCCGACGAUCGUAGGAGCUGAAGCAGACACCAUGAAGGAGUGUCACGUCCUGGCUGGCUUCCUCUCGGGUUUCCUCCCAGGCUUUCUGACUCAACCCAAGACCACUGCCCUCCUACAUCGAUUGACGAUCCAACAGAGGAUUGAGCAUCA
B13: 7680430_7680550_113_5pUTR_ENSG00000106399_ENST00000396682|human|control|control (ssRNA)
RNA: GGGAGUUCUACAGUCCGACGAUCGGGACUGCGGGGCCAGCCUCAGGUACCUCGUCUCGCGGGAGGCGCCGCAACCUUACUGUUUCCCCAUUCUUCCCGCGAACAGAGUCAAAAGAGCUAGGCGGGAGUCGGCACUAGCUGCUGCAACAGAGGAUUGAGCAUCA
B14: 51530015_51530135_2287_3pUTR_ENSMUSG00000036391_ENSMUST00000109097|mouse|control|control (ssRNA)
RNA: GGGAGUUCUACAGUCCGACGAUCGAAGACAGACAUUCGACCACCAGUUGGUGAUAUCAGCUUGAAUGCAGCCUGAAGUGCAGGACCCAAGGCACUCUGGGUCUCCAGCGUCUUCGUAAACAUUUGUGGCAGCGUUUUCAGUAACAACAGAGGAUUGAGCAUCA
B15: chr9:45784209:45784210:-_ENSMUSG00000003131_ENSMUST00000172450|mus_hu|FALSE|FALSE (ssRNA)
RNA: GGGAGUUCUACAGUCCGACGAUCGGAGUCUCCCACGAACAGUACAUCAGGCUCUUUGUCUUUACAGUCCAAAACAAAUCUGUUGUGCUGAGACAUCCAUCGGUCAUCUCCUUGAAUAUCUUCUGCUGCAUGCGGAAUAGCUGCCAACAGAGGAUUGAGCAUCA
B16: chr5:64741823:64741824:+_ENSMUSG00000029174_ENSMUST00000119756|mus_mus|FALSE|FALSE (ssRNA)
RNA: GGGAGUUCUACAGUCCGACGAUCAAUAAAUAUGUCAGACCCCACAGCUACAGGUCCCACACUAGCAAUAACAGGGAAUCUAAAAACUGUGAUUUCCUUAUGAAACAUUUACCUGUGACUUGAAAGGGUAAGCAAAAACCAUACCAACAGAGGAUUGAGCAUCA
B17: chr7:44244176:44244177:+_ENSG00000106636_ENST00000223369|hu_mus|hu_hu_hu_mus_False|38_48 (ssRNA)
RNA: GGGAGUUCUACAGUCCGACGAUCACUGUCGCUCCGGACGUAGACAUGGCAAAGAUACUCUUGUUCUUUGACAGAAGCUCUGCUGCCUUUCGAUGAGCGCUCCACAAUCAGUUGACUUGUAAAGGUCAUGAAUUCCUGCACACUCAACAGAGGAUUGAGCAUCA
B18: chr7:141450121:141450122:+_ENSG00000106028_ENST00000265304|hu_mus|hu_hu_hu_mus_True|88_108 (ssRNA)
RNA: GGGAGUUCUACAGUCCGACGAUCUCAUCCUUUCUACGCCUUUUCUUUCGUCUGGUCACUCAGAAAUAUAAUGUUAUCAGCUAUGAUUGUUGUUGCUUGCCGCCUCACAUUGUUUUUAUCCAUGUACUCGCCAUAGUCCACUUUCAACAGAGGAUUGAGCAUCA
B19: chr7:141450121:141450122:+_ENSG00000106028_ENST00000265304|hu_mus|hu_hu_hu_mus_True|8_38 (ssRNA)
RNA: B18 RNA with U30G, C36U, C48U, C99U, G129A
B20: chr3:101181902:101181903:+_ENSMUSG00000042035_ENSMUST00000043983|mus_hu|FALSE|FALSE (ssRNA)
RNA: GGGAGUUCUACAGUCCGACGAUCUGAUCUCCCUCAUUCGGAUUCCCCAGAGAGAACAGGGCAGGUUUCGUCAAAACCUUUGACGGCCAAAUCACCCUGCCUGGCAUCAACCGUUUGGGUUUCUUCACCAAAAAGUCCGUUUCCCAACAGAGGAUUGAGCAUCA
B21: chr22:19452774:19452775:-_ENSG00000070010_ENST00000399523|hu_hu|hu_hu_hu_mus_False|28_108 (ssRNA)
RNA: GGGAGUUCUACAGUCCGACGAUCCUUUUCAUUAUAGUUGAUAGCAAUCACAUCUCCAGUCGUCAGACAGGCGAAGUUUCUCAAUGCAUUUUCUAAUACCGCUUUAGGGUUGGUGAUAUCCAGGAAGUCUGGGCUCUGAGGCUGCAACAGAGGAUUGAGCAUCA
B22: 96524325_96529108_522_3pUTR_ENSMUSG00000031751_ENSMUST00000053766|mouse|control|control (ssRNA)
RNA: GGGAGUUCUACAGUCCGACGAUCAUGAACUUGUAGAAAAUAAAAUUCCAAAACUUGUCUUUGAGAUGCUGUCUUUCACUCACUCGAAGAGGGCCGAACACAAUACACUGGAUAAGCUUAGCCACCAACAUCAAAACACAGCAACAACAGAGGAUUGAGCAUCA

biological target: T1, UNK ZnF1-3; assay: nsRBNS (natural sequence RNA bind-n-seq); RBNS binding buffer (assumed for nsRBNS): 25 mM Tris pH 7.5, 150 mM KCl, 3 mM MgCl2, 0.01% Triton X-100, 500 ug/ml BSA, 20 U/ml SUPERase-In, 4 C; UNK is unkempt and MSI1 is Musashi-1; names of the RNAs are library labels; protein concentration not given here; high values mean tight binding

Binder	binding signal
B1	1.07 enrichment R
B2	0.569 enrichment R
B3	1.31 enrichment R
B4	0.402 enrichment R
B5	0.764 enrichment R
B6	2.17 enrichment R
B7	0.909 enrichment R
B8	0.314 enrichment R
B9	0.731 enrichment R
B10	0.423 enrichment R
B11	0.663 enrichment R
B12	1.09 enrichment R
B13	0.65 enrichment R
B14	0.985 enrichment R
B15	0.952 enrichment R
B16	1.4 enrichment R
B17	0.622 enrichment R
B18	0.351 enrichment R
B19	0.359 enrichment R
B20	0.936 enrichment R
B21	0.845 enrichment R
B22	2.17 enrichment R
